Values marked as one replicate rest on one cluster of the flow cell; about a third of the high ones do not repeat.
What follows are sequences tested on ATP (assay: switch fluorescence ratio, 500 uM ATP over buffer (Cy3 cluster intensity, sum of 5 cycles each) (fold (ratio)); higher = stronger signal-on switching upon ATP binding; sequences stand for … in TCGTCGGCAGCGTCAGATGTGTATAAGAGACAGTTTTTTTTTTTTTTTTTTTTTTTTT…TC). Conditions: aptamer strand: ATP DNA aptamer (quencher-CACCTGGGGGAGTATTGCGGAGGAAGG + anchor), 100 nM annealed; ATP concentration: 500 uM; one replicate.
In short: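 For every switch-domain sequence, the fluorescence ratio is the mean of per-cluster values, each being summed target-cycle Cy3 intensity over summed buffer-cycle Cy3 intensity. Clusters outside 100-1000 RFU were excluded. On a modified Illumina MiSeq flow-cell, the Cy3-labelled switching-strand clusters were annealed to 100 nM quencher-labelled ATP aptamer, imaged in selection buffer and then after 15 min with 500 uM ATP at 22 °C. Five such cycles were run, with NaOH stripping and re-annealing between them.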
For TCCTGATGTG, the switch fluorescence ratio was 1.02.
TCCTGGTAAC showed a switch fluorescence ratio of 1.02.
Work on TCCTGTGAGT yielded a switch fluorescence ratio of 0.971.
For TCCTGTTCT, the switch fluorescence ratio was 1.05.
In the case of TCCTTAGTGT, the switch fluorescence ratio is reported as 0.988.
In the case of TCCTTCTTTT, the switch fluorescence ratio is reported as 1.21.
Work on TCCTTGCTT yielded a switch fluorescence ratio of 1.01.
With TCCTTGGGGC the switch fluorescence ratio was 1.03.
TCCTTTCTGG gave a switch fluorescence ratio of 0.993.
With TCCTTTGATT the switch fluorescence ratio was 0.988.
Sequence TCCTTTTGTG has a switch fluorescence ratio of 0.953.
Sequence TCGAAACGGA has a switch fluorescence ratio of 1.03.
Sequence TCGAAAGGGT has a switch fluorescence ratio of 1.05.
Work on TCGAACCTCA yielded a switch fluorescence ratio of 1.07.
In the case of TCGAACGTTC, the switch fluorescence ratio is reported as 1.05.
Sequence TCGAAGACTG has a switch fluorescence ratio of 0.874.
TCGAAGCAGT showed a switch fluorescence ratio of 3.64.
In the case of TCGAAGCCAT, the switch fluorescence ratio is reported as 1.06.
TCGAAGGAAC showed a switch fluorescence ratio of 1.05.
TCGAAGGGAA gave a switch fluorescence ratio of 0.997.
In the case of TCGAAGTGGA, the switch fluorescence ratio is reported as 0.992.
TCGAAGTTAG showed a switch fluorescence ratio of 1.05.
With TCGAATAACA the switch fluorescence ratio was 1.
TCGAATAATA showed a switch fluorescence ratio of 1.02.
TCGACAATGT showed a switch fluorescence ratio of 1.07.
TCGACCGCCT gave a switch fluorescence ratio of 1.08.
Work on TCGACCTTT yielded a switch fluorescence ratio of 1.03.
TCGACGTGAA was tested, and the switch fluorescence ratio was 1.36.
Sequence TCGACTTACC has a switch fluorescence ratio of 1.23.
For TCGAGCGAAA, the switch fluorescence ratio was 1.04.
With TCGAGGAGAA the switch fluorescence ratio was 0.983.
Work on TCGAGGAGGT yielded a switch fluorescence ratio of 0.976.
TCGAGGATCC gave a switch fluorescence ratio of 0.887.
TCGAGGGGCT gave a switch fluorescence ratio of 1.1.
In the case of TCGAGTAATT, the switch fluorescence ratio is reported as 1.03.
Work on TCGAGTATTG yielded a switch fluorescence ratio of 1.
In the case of TCGAGTCATA, the switch fluorescence ratio is reported as 1.03.
In the case of TCGATAGACC, the switch fluorescence ratio is reported as 1.02.
For TCGATCATGC, the switch fluorescence ratio was 1.19.
TCGATGAGTA gave a switch fluorescence ratio of 1.02.
In the case of TCGATGCTTT, the switch fluorescence ratio is reported as 1.02.
For TCGATGTATT, the switch fluorescence ratio was 0.972.
In the case of TCGATTTGCT, the switch fluorescence ratio is reported as 0.972.
TCGCAACCTA was tested, and the switch fluorescence ratio was 1.51.
In the case of TCGCACGGCG, the switch fluorescence ratio is reported as 0.994.
TCGCACGGGA gave a switch fluorescence ratio of 1.06.
TCGCATAAAG showed a switch fluorescence ratio of 1.09.
For TCGCATATTA, the switch fluorescence ratio was 1.45.
TCGCATTTGT showed a switch fluorescence ratio of 1.06.
TCGCCATGGC showed a switch fluorescence ratio of 0.972.
TCGCCCCCCC was tested, and the switch fluorescence ratio was 1.61.
With TCGCCGATTT the switch fluorescence ratio was 1.08.
For TCGCCTGATC, the switch fluorescence ratio was 1.04.
TCGCCTGTT gave a switch fluorescence ratio of 1.02.
Sequence TCGCCTTCGA has a switch fluorescence ratio of 0.978.
Sequence TCGCGAATTT has a switch fluorescence ratio of 0.98.
TCGCGCGGG gave a switch fluorescence ratio of 0.964.
For TCGCGCGGGA, the switch fluorescence ratio was 1.04.
TCGCGGCGC was tested, and the switch fluorescence ratio was 0.975.
In the case of TCGCGTTATC, the switch fluorescence ratio is reported as 1.11.
Work on TCGCGTTGGT yielded a switch fluorescence ratio of 0.988.
Sequence TCGCTCCAAT has a switch fluorescence ratio of 1.08.
For TCGCTCTAAT, the switch fluorescence ratio was 1.07.
Work on TCGCTGATTG yielded a switch fluorescence ratio of 1.01.
TCGCTGCAGT showed a switch fluorescence ratio of 1.37.
TCGCTGGGCA gave a switch fluorescence ratio of 0.991.
TCGCTTTCGA showed a switch fluorescence ratio of 0.985.
For TCGGAAAAAG, the switch fluorescence ratio was 0.982.
TCGGAAAATT showed a switch fluorescence ratio of 0.953.
TCGGACAGAC gave a switch fluorescence ratio of 1.28.
For TCGGACATTT, the switch fluorescence ratio was 1.04.
For TCGGACGATG, the switch fluorescence ratio was 0.935.
TCGGACGGCC was tested, and the switch fluorescence ratio was 1.03.
Work on TCGGAGATGT yielded a switch fluorescence ratio of 0.957.
TCGGAGGGAC showed a switch fluorescence ratio of 1.04.
Sequence TCGGATGCC has a switch fluorescence ratio of 1.09.
With TCGGATGGGT the switch fluorescence ratio was 0.977.
TCGGATGTA gave a switch fluorescence ratio of 0.952.
In the case of TCGGATTAAG, the switch fluorescence ratio is reported as 0.995.
TCGGCACCTG showed a switch fluorescence ratio of 0.975.
TCGGCCCTAC was tested, and the switch fluorescence ratio was 1.61.
With TCGGCCTAAA the switch fluorescence ratio was 0.994.
TCGGCCTAGG showed a switch fluorescence ratio of 0.997.
In the case of TCGGCCTTTC, the switch fluorescence ratio is reported as 1.45.
TCGGCGCGC showed a switch fluorescence ratio of 0.972.

From the supplement of paper PMC10126150
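Note: ATP exposure 15 min at 22 °C before imaging.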
